{"source": "the supplement of paper PMC8728848", "assay_in_all_cases": "glycan array binding signal (z-score within array); higher = stronger binding", "details_in_all_cases": "glycan notation: IUPAC condensed, linker removed", "key": {"[1]": {"target": "Neu5Ac(a2-6)Gal(b1-4)GlcNAc(b1-6)[Gal(b1-3)GlcNAc(b1-3)]Gal(b1-4)Glc", "procedure,_shortened": "(§1)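 Arrays were curated from the Consortium for Functional Glycomics database, 3228 in total, and kept only where the protein sequence was available. Binding is expressed as a within-array Z-score. This score was averaged across arrays of the same protein sequence at different concentrations or buffers and across linkers, and negative values can be read as non-binding.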"}, "[2]": {"target": "Neu5Ac(a2-6)Gal(b1-4)GlcNAc(b1-6)[Gal(b1-3)]GalNAc", "procedure,_shortened": "as §1"}, "[3]": {"target": "Neu5Ac(a2-6)Gal(b1-4)GlcNAc6S", "procedure,_shortened": "as §1"}, "[4]": {"target": "Neu5Ac(a2-6)GalNAc", "procedure,_shortened": "as §1"}, "[5]": {"target": "Neu5Ac(a2-6)GalNAc(b1-4)GlcNAc", "procedure,_shortened": "as §1"}, "[6]": {"target": "Neu5Ac(a2-6)GalNAc(b1-4)GlcNAc6S", "procedure,_shortened": "as §1"}, "[7]": {"target": "Neu5Ac(a2-6)GlcNAc(b1-4)GlcNAc", "procedure,_shortened": "as §1"}, "[8]": {"target": "Neu5Ac(a2-6)GlcNAc(b1-4)GlcNAc(b1-4)GlcNAc", "procedure,_shortened": "as §1"}, "[9]": {"target": "Neu5Ac(a2-8)Neu5Ac", "procedure,_shortened": "as §1"}, "[10]": {"target": "Neu5Ac(a2-8)Neu5Ac(a2-3)Gal(b1-3)GalNAc(b1-4)[Neu5Ac(a2-3)]Gal(b1-4)Glc", "procedure,_shortened": "as §1"}, "[11]": {"target": "Neu5Ac(a2-8)Neu5Ac(a2-3)Gal(b1-3)GalNAc(b1-4)[Neu5Ac(a2-8)Neu5Ac(a2-3)]Gal(b1-4)Glc", "procedure,_shortened": "as §1"}, "[12]": {"target": "Neu5Ac(a2-8)Neu5Ac(a2-3)Gal(b1-4)Glc", "procedure,_shortened": "as §1"}, "[13]": {"target": "Neu5Ac(a2-8)Neu5Ac(a2-3)Gal(b1-4)GlcNAc", "procedure,_shortened": "as §1"}, "[14]": {"target": "Neu5Ac(a2-8)Neu5Ac(a2-3)[Gal(b1-3)GalNAc(b1-4)]Gal(b1-4)Glc", "procedure,_shortened": "as §1"}, "[15]": {"target": "Neu5Ac(a2-8)Neu5Ac(a2-3)[GalNAc(b1-4)]Gal(b1-4)Glc", "procedure,_shortened": "as §1"}, "[16]": {"target": "Neu5Ac(a2-8)Neu5Ac(a2-8)Neu5Ac", "procedure,_shortened": "as §1"}, "[17]": {"target": "Neu5Ac(a2-8)Neu5Ac(a2-8)Neu5Ac(a2-3)Gal(b1-4)Glc", "procedure,_shortened": "as §1"}, "[18]": {"target": "Neu5Ac(a2-8)Neu5Ac(a2-8)Neu5Ac(a2-3)[Gal(b1-3)GalNAc(b1-4)]Gal(b1-4)Glc", "procedure,_shortened": "as §1"}, "[19]": {"target": "Neu5Ac(a2-8)Neu5Ac(a2-8)Neu5Ac(a2-3)[GalNAc(b1-4)]Gal(b1-4)Glc", "procedure,_shortened": "as §1"}, "[20]": {"target": "Neu5Ac(a2-8)Neu5Ac(a2-8)Neu5Ac(a2-8)Neu5Ac(a2-3)[GalNAc(b1-4)]Gal(b1-4)Glc", "procedure,_shortened": "as §1"}, "[21]": {"target": "Neu5Ac(a2-8)Neu5Gc(a2-3)Gal(b1-4)GlcNAc", "procedure,_shortened": "as §1"}, "[22]": {"target": "Neu5Ac(b2-6)Gal(b1-4)GlcNAc", "procedure,_shortened": "as §1"}, "[23]": {"target": "Neu5Ac(b2-6)GalNAc", "procedure,_shortened": "as §1"}, "[24]": {"target": "Neu5Ac9Ac(a2-3)Gal(b1-3)GlcNAc", "procedure,_shortened": "as §1"}, "[25]": {"target": "Neu5Ac9Ac(a2-3)Gal(b1-4)GlcNAc", "procedure,_shortened": "as §1"}, "[26]": {"target": "Neu5Ac9Ac(a2-6)Gal(b1-4)GlcNAc", "procedure,_shortened": "as §1"}, "[27]": {"target": "Neu5Gc(a2-3)Gal(b1-3)GlcNAc", "procedure,_shortened": "as §1"}, "[28]": {"target": "Neu5Gc(a2-3)Gal(b1-3)[Fuc(a1-4)]GlcNAc", "procedure,_shortened": "as §1"}, "[29]": {"target": "Neu5Gc(a2-3)Gal(b1-4)Glc", "procedure,_shortened": "as §1"}, "[30]": {"target": "Neu5Gc(a2-3)Gal(b1-4)GlcNAc", "procedure,_shortened": "as §1"}, "[31]": {"target": "Neu5Gc(a2-3)Gal(b1-4)GlcNAc(b1-3)Gal(b1-4)GlcNAc(b1-2)Man(a1-3)[Neu5Gc(a2-3)Gal(b1-4)GlcNAc(b1-3)Gal(b1-4)GlcNAc(b1-2)Man(a1-6)]Man(b1-4)GlcNAc(b1-4)GlcNAc", "procedure,_shortened": "as §1"}, "[32]": {"target": "Neu5Gc(a2-3)Gal(b1-4)[Fuc(a1-3)]GlcNAc", "procedure,_shortened": "as §1"}, "[33]": {"target": "Neu5Gc(a2-6)Gal(b1-4)GlcNAc", "procedure,_shortened": "as §1"}, "[34]": {"target": "Neu5Gc(a2-6)GalNAc", "procedure,_shortened": "as §1"}, "[35]": {"target": "Neu5Gc(a2-8)Neu5Ac(a2-3)Gal(b1-4)GlcNAc", "procedure,_shortened": "as §1"}, "[36]": {"target": "Neu5Gc(a2-8)Neu5Gc(a2-3)Gal(b1-4)GlcNAc", "procedure,_shortened": "as §1"}, "[37]": {"target": "Neu5Gc(a2-8)Neu5Gc(a2-3)Gal(b1-4)GlcNAc(b1-3)Gal(b1-4)GlcNAc", "procedure,_shortened": "as §1"}, "[38]": {"target": "Neu5Gc(a2-8)Neu5Gc(a2-6)Gal(b1-4)GlcNAc", "procedure,_shortened": "as §1"}, "[39]": {"target": "Neu5Gc(b2-6)Gal(b1-4)GlcNAc", "procedure,_shortened": "as §1"}}, "note": "Some of the results follow."}
{"binder": "LSL-150 (Laetiporus sulphureus), Q7Z8V1 (protein) MTDIYIPPEGLYFRLLGFASRQVIFARNSPSPDVGLSPVNDQATDQYFSLIYGTGEHAGLYAIKSKATGKVLFSRRPAEPYVGQIDGDGRYPDNWFKIEPGKTYLSKYFRLVQPSTGTALVSRTHLQPYFWNHPQTEVFDDQYFTFLFEDHHHHHH", "values": [{"measurement": "glycan array binding signal (z-score)", "setting": "[1]", "value": -0.207}, {"measurement": "glycan array binding signal (z-score)", "setting": "[2]", "value": -0.194}, {"measurement": "glycan array binding signal (z-score)", "setting": "[3]", "value": -0.203}, {"measurement": "glycan array binding signal (z-score)", "setting": "[4]", "value": -0.206}, {"measurement": "glycan array binding signal (z-score)", "setting": "[5]", "value": -0.207}, {"measurement": "glycan array binding signal (z-score)", "setting": "[6]", "value": -0.21}, {"measurement": "glycan array binding signal (z-score)", "setting": "[7]", "value": -0.208}, {"measurement": "glycan array binding signal (z-score)", "setting": "[8]", "value": -0.209}, {"measurement": "glycan array binding signal (z-score)", "setting": "[9]", "value": -0.2}, {"measurement": "glycan array binding signal (z-score)", "setting": "[10]", "value": -0.202}, {"measurement": "glycan array binding signal (z-score)", "setting": "[11]", "value": -0.193}, {"measurement": "glycan array binding signal (z-score)", "setting": "[12]", "value": -0.205}, {"measurement": "glycan array binding signal (z-score)", "setting": "[13]", "value": -0.204}, {"measurement": "glycan array binding signal (z-score)", "setting": "[14]", "value": -0.195}, {"measurement": "glycan array binding signal (z-score)", "setting": "[15]", "value": -0.209}, {"measurement": "glycan array binding signal (z-score)", "setting": "[16]", "value": -0.21}, {"measurement": "glycan array binding signal (z-score)", "setting": "[17]", "value": -0.206}, {"measurement": "glycan array binding signal (z-score)", "setting": "[18]", "value": -0.209}, {"measurement": "glycan array binding signal (z-score)", "setting": "[19]", "value": -0.203}, {"measurement": "glycan array binding signal (z-score)", "setting": "[20]", "value": -0.201}, {"measurement": "glycan array binding signal (z-score)", "setting": "[21]", "value": -0.21}, {"measurement": "glycan array binding signal (z-score)", "setting": "[22]", "value": -0.208}, {"measurement": "glycan array binding signal (z-score)", "setting": "[23]", "value": -0.212}, {"measurement": "glycan array binding signal (z-score)", "setting": "[24]", "value": -0.208}, {"measurement": "glycan array binding signal (z-score)", "setting": "[25]", "value": -0.21}, {"measurement": "glycan array binding signal (z-score)", "setting": "[26]", "value": -0.207}, {"measurement": "glycan array binding signal (z-score)", "setting": "[27]", "value": -0.213}, {"measurement": "glycan array binding signal (z-score)", "setting": "[28]", "value": -0.207}, {"measurement": "glycan array binding signal (z-score)", "setting": "[29]", "value": -0.205}, {"measurement": "glycan array binding signal (z-score)", "setting": "[30]", "value": -0.207}, {"measurement": "glycan array binding signal (z-score)", "setting": "[31]", "value": -0.003}, {"measurement": "glycan array binding signal (z-score)", "setting": "[32]", "value": -0.208}, {"measurement": "glycan array binding signal (z-score)", "setting": "[33]", "value": -0.206}, {"measurement": "glycan array binding signal (z-score)", "setting": "[34]", "value": -0.207}, {"measurement": "glycan array binding signal (z-score)", "setting": "[35]", "value": -0.202}, {"measurement": "glycan array binding signal (z-score)", "setting": "[36]", "value": -0.211}, {"measurement": "glycan array binding signal (z-score)", "setting": "[37]", "value": -0.196}, {"measurement": "glycan array binding signal (z-score)", "setting": "[38]", "value": -0.206}, {"measurement": "glycan array binding signal (z-score)", "setting": "[39]", "value": -0.203}]}
